Substitutions are numbered along the chain they refer to. In names and notes the source's numbering stands. These are yes or no findings as the source states them, for the method shown. For part of these data: Binding seen in cells or lysates may run through a third protein. Some binding calls cover weakened binding; strength is not graded here. Sequences can lack the tags named with a protein. Values belong to the binder of their own block, whether it stands above or below them. *: point of attachment. Biotin = O=C1N[C@H]2[C@H](CS[C@H]2CCCCC(=O)*)N1; Ahx = NCCCCCC(=O)O
Experiments:
[1] = biological target: T1, HA-epitope tagged RGS12 full-length protein (UniProt O14924); experiment: co-IP; HEK293T cells co-transfected with pcDNA3.1-Flag-SAPAP3 and pcDNA3.1-HA-RGS12; Triton-X lysis buffer (20 mM Tris-HCl pH 7.5, 150 mM NaCl, 1 mM EDTA, 1 mM EGTA, 1% Triton X-100); anti-HA or anti-Flag antibody overnight at 4 °C, protein-A/G beads; immunoblot for HA or Flag
T1 sequence: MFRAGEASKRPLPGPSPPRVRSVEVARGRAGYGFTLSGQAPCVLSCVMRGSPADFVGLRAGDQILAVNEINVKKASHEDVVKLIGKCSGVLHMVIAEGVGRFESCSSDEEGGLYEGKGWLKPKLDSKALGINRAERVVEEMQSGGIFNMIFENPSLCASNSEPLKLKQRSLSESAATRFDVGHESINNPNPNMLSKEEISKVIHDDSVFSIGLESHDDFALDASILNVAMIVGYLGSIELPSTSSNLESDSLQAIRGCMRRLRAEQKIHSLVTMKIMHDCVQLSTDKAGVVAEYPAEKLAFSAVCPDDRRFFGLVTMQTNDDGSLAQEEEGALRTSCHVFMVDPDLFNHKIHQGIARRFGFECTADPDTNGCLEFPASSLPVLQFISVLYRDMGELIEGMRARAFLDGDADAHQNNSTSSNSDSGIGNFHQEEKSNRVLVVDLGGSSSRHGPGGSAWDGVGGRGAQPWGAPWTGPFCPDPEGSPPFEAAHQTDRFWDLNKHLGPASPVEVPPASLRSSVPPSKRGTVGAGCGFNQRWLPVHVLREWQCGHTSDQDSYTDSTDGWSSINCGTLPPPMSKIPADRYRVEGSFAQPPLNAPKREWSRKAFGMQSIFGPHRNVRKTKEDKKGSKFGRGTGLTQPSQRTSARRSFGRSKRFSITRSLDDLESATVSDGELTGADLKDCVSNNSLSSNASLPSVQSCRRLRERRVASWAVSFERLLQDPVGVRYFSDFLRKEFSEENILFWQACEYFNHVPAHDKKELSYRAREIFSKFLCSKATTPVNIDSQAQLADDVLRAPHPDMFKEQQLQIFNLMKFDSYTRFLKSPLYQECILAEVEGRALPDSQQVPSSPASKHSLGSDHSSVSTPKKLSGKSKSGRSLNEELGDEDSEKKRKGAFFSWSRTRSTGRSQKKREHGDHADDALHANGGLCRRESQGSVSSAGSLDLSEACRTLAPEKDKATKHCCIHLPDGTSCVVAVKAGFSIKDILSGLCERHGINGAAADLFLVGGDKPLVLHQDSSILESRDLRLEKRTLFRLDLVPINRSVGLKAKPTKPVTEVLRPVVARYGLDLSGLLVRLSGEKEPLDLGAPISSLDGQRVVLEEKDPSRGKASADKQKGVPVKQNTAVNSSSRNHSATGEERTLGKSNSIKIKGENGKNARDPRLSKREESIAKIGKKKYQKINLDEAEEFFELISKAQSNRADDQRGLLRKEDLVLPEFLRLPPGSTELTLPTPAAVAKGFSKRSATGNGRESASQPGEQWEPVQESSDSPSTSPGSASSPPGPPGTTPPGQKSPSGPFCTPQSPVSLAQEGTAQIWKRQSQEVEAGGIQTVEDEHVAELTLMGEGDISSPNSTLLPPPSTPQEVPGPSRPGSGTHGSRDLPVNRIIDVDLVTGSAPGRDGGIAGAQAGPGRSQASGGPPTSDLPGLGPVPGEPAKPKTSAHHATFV

[2] = biological target: T2, Flag-epitope tagged SAPAP3 full-length protein (UniProt O95886); experiment: as above
T2 sequence: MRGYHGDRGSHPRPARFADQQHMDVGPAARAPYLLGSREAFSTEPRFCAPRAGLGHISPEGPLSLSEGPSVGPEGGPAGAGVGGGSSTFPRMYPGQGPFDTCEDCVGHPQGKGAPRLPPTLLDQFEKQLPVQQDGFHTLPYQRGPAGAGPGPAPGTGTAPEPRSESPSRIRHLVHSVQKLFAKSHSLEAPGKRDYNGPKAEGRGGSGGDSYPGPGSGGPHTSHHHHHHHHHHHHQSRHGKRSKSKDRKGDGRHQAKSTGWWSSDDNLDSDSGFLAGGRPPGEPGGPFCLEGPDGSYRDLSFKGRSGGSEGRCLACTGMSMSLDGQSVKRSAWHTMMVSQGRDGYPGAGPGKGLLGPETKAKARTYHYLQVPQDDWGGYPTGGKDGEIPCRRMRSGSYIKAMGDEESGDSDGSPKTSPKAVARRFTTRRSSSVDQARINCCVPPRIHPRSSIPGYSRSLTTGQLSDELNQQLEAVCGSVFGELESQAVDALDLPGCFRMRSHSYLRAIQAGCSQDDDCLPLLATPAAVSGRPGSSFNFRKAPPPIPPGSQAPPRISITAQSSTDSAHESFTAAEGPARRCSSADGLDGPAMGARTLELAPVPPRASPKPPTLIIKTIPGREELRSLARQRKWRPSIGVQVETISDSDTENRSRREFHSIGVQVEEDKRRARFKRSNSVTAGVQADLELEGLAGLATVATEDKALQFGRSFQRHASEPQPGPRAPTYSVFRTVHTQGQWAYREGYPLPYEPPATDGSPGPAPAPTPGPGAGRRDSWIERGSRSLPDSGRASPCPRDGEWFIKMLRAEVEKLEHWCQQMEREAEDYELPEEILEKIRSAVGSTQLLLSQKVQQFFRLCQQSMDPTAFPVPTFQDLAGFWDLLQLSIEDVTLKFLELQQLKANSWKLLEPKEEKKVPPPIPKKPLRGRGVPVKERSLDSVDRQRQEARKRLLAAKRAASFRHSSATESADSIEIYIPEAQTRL

[3] = biological target: T3, mNotch1 C-terminal peptide, biotin-Ahx-…-carboxylic acid (mouse); experiment: SPR; Alto 8 × 2 digital microfluidics SPR (Nicoya); biotinylated peptides immobilised on streptavidin-coated gold nanosensors; GST-RGS12 PDZ fusion protein as analyte, single-cycle kinetics, 111 nM-9 μM; PBS pH 7.3 with 0.1% Tween 20, BSA, 3% glycerol; mNotch1 or rβ2AR reference sensor subtracted; 1:1 Langmuir model with mass transport limitation; apparent rates, estimated KD; both purified
T3 sequence (peptide, biotin-Ahx on the N-terminus; C-terminal carboxylic acid): PSQITHIPEAFK

[4] = biological target: T4, rat beta2-adrenergic receptor C-terminal peptide, biotin-Ahx-…-carboxylic acid (rat); experiment: as above
T4 sequence (peptide, biotin-Ahx on the N-terminus; C-terminal carboxylic acid): QGRNCNTNDSPL

- binding [1]: binds
B1: Flag-epitope tagged SAPAP3 full-length protein (protein, UniProt O95886 1-979)
chain: T2 sequence

- binding [2]: binds
B2: HA-epitope tagged RGS12 full-length protein (protein, UniProt O14924 1-1447)
chain: T1 sequence

- binding [3]: no binding (tested: 9 μM)
- binding [4]: no binding (tested: 9 μM)
B3: Wildtype human RGS12 PDZ domain GST-fusion protein (domain or fragment, UniProt O14924 18-101)
chain: PRVRSVEVARGRAGYGFTLSGQAPCVLSCVMRGSPADFVGLRAGDQILAVNEINVKKASHEDVVKLIGKCSGVLHMVIAEGVGR

- binding [3]: no binding (tested: 9 μM)
- binding [4]: no binding (tested: 9 μM)
B4: R59Q-variant human RGS12 PDZ domain GST-fusion protein (domain or fragment, UniProt O14924 18-101, looked up)
chain: B3 chain with R42Q
notes: human RGS12 PDZ domain, aa 18-101 of UniProt O14924, with the bipolar disorder-associated missense variation R59Q; R59Q is a variant found in families with bipolar disorder (Forstner et al.); also called R59Q-variant PDZ domain fusion protein; not shown: GST, N-terminal, kept
